In all, about 420,000 compounds went through this assay and about 50,000 (12%) were called active. Inconclusive results, whose numbers are uncertain, are shown with a selection of clear calls. Calls come from the whole dose curve; as a rule, active = well fitted inhibition curve with a large enough effect; inconclusive = small, poorly fitted or top-dose-only effect; inactive = flat fitted curve, though single readings scatter. Potencies of inconclusive entries are left out as doubtful fits.
test: qHTS for Inhibitors of human tyrosyl-DNA phosphodiesterase 1 (TDP1): qHTS in cells in presence of CPT; details: chicken DT40 Tdp1-/-;hTDP1 cells + 20 nM CPT, ATP luminescence, 48 h; activity change, negative = growth inhibition: at 46.2 µM (top of the series) unless noted; note: nearly all actives have a fitted effect of over 55% in size
Procedure, shortened: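 Chicken DT40 Tdp1-/- cells stably complemented with human TDP1 were seeded at 400 cells/well in medium containing 20 nM camptothecin, exposed to pin-transferred compounds, and grown at 37 °C for at least 48 hr. Viability was read as ATP luminescence.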
% is set by controls: 0 for no effect and ±100 for the full control effect; potency is the fitted concentration of half-maximal effect; tags give direction and shape of the fitted curve.

Question: With `COc1ccc(NC(=O)c2ccc3c(=O)n(Cc4ccco4)c(=S)[nH]c3c2)c(OC)c1` as the compound, how does the Potency read?
Answer: The Potency was inconclusive [inhibitor, partial curve].

Question: Which Potency does the source give for `Cc1nc2c(-c3ccc(F)cc3)c(C)nn2c(C)c1CCC(=O)N1CCC(Cc2ccccc2)CC1` here?
Answer: Its Potency is inconclusive [inhibitor, single point].

Question: With `O=C(CNC(=O)c1ccc(Cl)cc1)OC1CCOC1=O` (centres undefined) as the compound, how does the Potency read?
Answer: The Potency was inconclusive [inhibitor, single point].

Question: For `Clc1ncc(CN2CCN(c3ccccc3)CC2)s1`, which Potency is on record?
Answer: Its Potency is “inactive”.

Question: With `CC(C)(C)N1C(=O)c2ccc(C(=O)Nc3nccs3)cc2C1=O` as the compound, how does the Potency read?
Answer: The Potency was inconclusive [inhibitor, single point].

Question: For `CCc1ccccc1NC(=O)CN1CCN(C(=O)CNC(=O)Cc2cccc3ccccc23)CC1`, which Potency is on record?
Answer: Its Potency is “inactive”.

Question: With `O=C(NCCCN1CCN(c2ccccc2F)CC1)C1CCN(S(=O)(=O)c2cccs2)CC1` as the compound, how does the Potency read?
Answer: Its Potency is active: 12.6 µM.

Question: With `CC1CCCN(Cc2c(O)ccc3c(=O)c(Oc4ccccc4Cl)c(C(F)(F)F)oc23)C1` (centres undefined) as the compound, how does the Potency read?
Answer: The Potency was “inactive”.

Question: For `Cc1ccc(S(=O)(=O)c2cn(Cc3ccccc3F)c3cc4c(cc3c2=O)OCO4)cc1`, which Potency is on record?
Answer: The Potency was active: 5.8 µM.

Question: For `Cc1ccc([N+](=O)[O-])cc1S(=O)(=O)NCCc1c(C)[nH]c2c(C)cccc12`, which Potency is on record?
Answer: Its Potency is inconclusive [inhibitor, single point].

Question: For `Cc1cc(NC(=O)c2ccc3c(c2)N(Cc2cccc(Cl)c2)C(=O)c2ccccc2S3=O)ccc1Br` (centres undefined), which Potency is on record?
Answer: The Potency was inconclusive [inhibitor, partial curve].

Question: Which Potency does the source give for `CC(C)CNC(=O)C1(C)CCN1C(=O)c1ccc(C(C)(C)C)cc1` (centres undefined) here?
Answer: Its Potency is active: 10.3 µM.

Question: For `COc1ccc(C2OC(=O)CC2C(=O)NCc2ccc(Cl)cc2)cc1OC` (centres undefined), which Potency is on record?
Answer: The Potency was “inactive”.

Question: Which Potency does the source give for `COc1ccc(C2=Nc3ccccc3N(C(=O)c3ccc(C(F)(F)F)cc3)C2C(=O)NCc2ccccc2)cc1` (centres undefined) here?
Answer: Its Potency is inconclusive [inhibitor, single point].

Question: With `Cc1ccn2c(=O)nc(SCC(=O)N3CCC(C)CC3)nc2c1` as the compound, how does the Potency read?
Answer: Its Potency is inconclusive [inhibitor, single point].

Question: With `COc1ccc(N(CCCN2C(=O)c3cccc4cccc(c34)C2=O)C(=O)c2cccnc2)cc1` as the compound, how does the Potency read?
Answer: Its Potency is inconclusive [inhibitor, partial curve].

Question: Which Potency does the source give for `Cc1ccc(S(=O)(=O)N2CCN(C(=O)COC(=O)c3ccc([N+](=O)[O-])o3)CC2)c(C)c1` here?
Answer: Its Potency is inconclusive [inhibitor, single point].

Question: For `NS(=O)(=O)c1ccc(N/C=C/C(=O)c2ccc(Br)cc2)cc1`, which Potency is on record?
Answer: The Potency was inconclusive [inhibitor, single point].

Question: With `COc1ccc(OC)c(NC(=O)Nc2nc(C(N)C(C)C)cs2)c1` (centres undefined) as the compound, how does the Potency read?
Answer: The Potency was inconclusive [inhibitor, single point].

Question: Which Potency does the source give for `O=C(Nc1nnc(SCC(=O)N2CCCc3ccccc32)s1)c1cccc2ccccc12` here?
Answer: Its Potency is inconclusive [inhibitor, single point].

Question: For `Cc1cc2cc(C)c(NCCNC(=O)c3cccc(F)c3)nc2cc1C`, which Potency is on record?
Answer: Its Potency is inconclusive [inhibitor, single point].

Question: For `Cn1ccc(NC(=O)Nc2cccc(C(F)(F)F)c2)n1`, which Potency is on record?
Answer: Its Potency is “inactive”.

Question: For `Brc1cc2c(cc1/C=N/Nc1nc3ccccc3s1)OCO2`, which Potency is on record?
Answer: The Potency was active: 14.6 µM.

Question: Which Potency does the source give for `CC(C(=O)O)n1nnc2ccccc21` (centres undefined) here?
Answer: The Potency was “inactive”.

Question: For `CN1C(=O)C(C)(C)c2cc(S(=O)(=O)N3CCCC(C(=O)NCc4ccc(Cl)cc4)C3)ccc21` (centres undefined), which Potency is on record?
Answer: Its Potency is inconclusive [inhibitor, single point].

Question: Which Potency does the source give for `Cc1cccc(NC(=O)COC(=O)c2ccc(C)c(S(=O)(=O)N3CCCCC3)c2)c1` here?
Answer: The Potency was inconclusive [inhibitor, single point].

Question: Which Potency does the source give for `COc1ccccc1NC(=O)C1=C(C)N(c2ccccc2)C(=S)NC1c1cccc(C(F)(F)F)c1` (centres undefined) here?
Answer: The Potency was inconclusive [inhibitor, single point].

Question: Which Potency does the source give for `CC(C)CCNC(=O)COc1ccc(C(=O)c2ccccc2)cc1` here?
Answer: The Potency was active: 18.4 µM.

Question: With `O=Cc1cnc2ccccc2c1-c1ccccc1` as the compound, how does the Potency read?
Answer: The Potency was inconclusive [inhibitor, single point].

Question: Which Potency does the source give for `CCOC(=O)c1c(C=O)c(C)n(Cc2ccccc2)c1C` here?
Answer: Its Potency is inconclusive [inhibitor, single point].

Question: Which Potency does the source give for `COc1cc2cc(CCOC(=O)N3CCCCC3)oc(=O)c2cc1OC` here?
Answer: The Potency was inconclusive [inhibitor, partial curve].

Question: For `CCN1C(=NCC2CC2)N[C@@H](c2cccc(C(F)(F)F)c2)C(C(=O)OC)=C1C`, which Potency is on record?
Answer: Its Potency is inconclusive [inhibitor, partial curve, poor fit].

Question: With `CCC1CN(S(=O)(=O)c2cc(-c3cc(C)no3)ccc2OC)c2cc(C)ccc2O1` (centres undefined) as the compound, how does the Potency read?
Answer: Its Potency is active: 18.4 µM.

Question: Which Potency does the source give for `O=C(c1ccccc1)N1CCN(C(=O)c2cccnc2)CC1` here?
Answer: The Potency was “inactive”.

Question: With `O=C(Cn1cncc1-c1ccc([N+](=O)[O-])cc1)Nc1cccc2ccccc12` as the compound, how does the activity change, negative = growth inhibition read?
Answer: Its activity change, negative = growth inhibition is inconclusive: -33.4% [inhibitor].

Question: With `CCC(Oc1ccccc1C)C(=O)Nc1ccc(S(=O)(=O)Nc2cc(C)on2)cc1` (centres undefined) as the compound, how does the Potency read?
Answer: Its Potency is “inactive”.

Question: Which Potency does the source give for `Cc1ccc(C(C)C)c(OCCNC(=O)c2cncc(Br)c2)c1` here?
Answer: Its Potency is inconclusive [inhibitor, single point].

Question: With `O=C(O)CSCC(=O)NCc1c(Cl)cccc1Oc1ccccc1` as the compound, how does the Potency read?
Answer: Its Potency is “inactive”.

Question: For `CSCCC(NC(=O)c1ccccc1)C(=O)N1CC=C(c2ccccc2)CC1` (centres undefined), which Potency is on record?
Answer: Its Potency is inconclusive [inhibitor, single point].

Question: For `CC(C)NC(=O)c1ccc2c(=O)n(C3CCCC3)c(=S)[nH]c2c1`, which Potency is on record?
Answer: Its Potency is “inactive”.

Question: Which Potency does the source give for `Cc1ccc(S(=O)(=O)N(CC(=O)NCc2ccncc2)C2CCCCC2)cc1` here?
Answer: Its Potency is active: 11.6 µM.

Question: For `CCN1CCN(C(=O)c2ccc3c(c2)N(Cc2ccc(Cl)cc2)C(=O)c2ccccc2S3(=O)=O)CC1`, which Potency is on record?
Answer: Its Potency is inconclusive [inhibitor, partial curve].

Question: For `Cc1cccn2c(CNCCc3ccccn3)c(C(=O)N3CCOCC3)nc12`, which Potency is on record?
Answer: Its Potency is “inactive”.

Question: With `CC(C)C1C(=O)N(Cc2cn(CC3CCCCC3)nn2)CCS(=O)(=O)N1Cc1ccc(-c2ccccc2)cc1` (centres undefined) as the compound, how does the Potency read?
Answer: The Potency was active: 13 µM.

— PubChem BioAssay AID686979 (National Center for Advancing Translational Sciences (NCATS), 2013)
